From PubChem BioAssay AID504637 (National Center for Advancing Translational Sciences (NCATS), 2011)
Out of some 1,100 compounds screened, about 430 (39%) were called active. So high a share suggests a set chosen from earlier hits. The shares of active, inactive and inconclusive entries below differ from those in the screen. The call rests on the fitted dose curve; in most records, active means well fitted inhibition curve with a large enough effect; inconclusive means small, poorly fitted or top-dose-only effect, or effect the other way; inactive means flat fitted curve, though single readings scatter. Where the call is inconclusive, the potency comes from a doubtful curve fit.

These compounds were tested against ATP-dependent 6-phosphofructokinase (Trypanosoma brucei brucei) (UniProt O15648) (assay: Inhibitors of T. brucei phosphofructokinase: Hit Validation). Conditions: purified T. brucei PFK, ADP-Glo luminescence, 45 min; series mostly up to 57.5 µM; activity change, negative = inhibition: at the top concentration.
From the text: NCGC Assay Overview: Various species of the protozoan family Trypanosomatidae are responsible for a range of serious human diseases in tropical and subtropical areas of the world. […] Many of the disorders caused by trypanosomatids are fatal if left untreated, but most currently used drugs are inefficient and toxic. […] Oxidative metabolism involving the mitochondrial tricarboxylic acid cycle and oxidative phosphorylation are repressed in these parasites, and recent RNA interference (RNAi) experiments have shown that even partial depletion of certain individual glycolytic enzymes can lead to the death of cultured parasites. One such glycolytic enzyme, phosphofructokinase (PFK), catalyzes the formation of fructose-1,6-bisphosphate (F1,6BP) and ADP from fructose-6-phosphate (F6P) and ATP, and in many metabolic circumstances makes an important contribution to the control of flux through the glycolytic pathway. As a specific glycolytic target, PFK is particularly attractive as it catalyzes the first irreversible step in glycolysis, and structural and kinetic studies have shown very substantial and essential differences from corresponding host enzymes, allowing for the discovery of parasite-selective inhibitors. The goal of this screen is to find small-molecule inhibitors of T. brucei PFK using a biochemical assay that measures PFK activity as a function of ADP production. A luminescence-based assay for T. brucei PFK activity has been developed which uses luciferase to detect production of ADP. Traditional luciferase-based nucleotide detection reagents rely on ATP production as a direct substrate for the luciferase reaction; however, PFK catalyzes the transfer of a phosphate from ATP to F6P, resulting in the net depletion of ATP. To directly measure the ADP product of the PFK reaction, we used the ADP-Glo detection kit (Promega), which utilizes two separate reactions to 1) deplete all remaining uncatalyzed ATP and 2) convert all remaining ADP to ATP, which is then detected through a traditional luciferase-coupled reaction. Compounds were screened as a concentration-titration series that ranged from 57uM to 0.7nM. 1. Verlinde, C.L., et al., Glycolysis as a target for the design of new anti-trypanosome drugs. Drug Resist Updat, 2001. 4(1): p. 50-65. 2. Albert, M.A., et al., Experimental and in silico analyses of glycolytic flux control in bloodstream form Trypanosoma brucei. J Biol Chem, 2005. 280(31): p. 28306-15. 3. […] J Mol Biol, 2009. 385(5): p. 1519-33. NIH Molecular Libraries Probe Production Network [MLPCN] NIH Chemical Genomics Center [NCGC] Grant: 1 R03 MH092153-01 PI Name: Malcolm Walkinshaw, University of Edinburgh
NCGC Assay Protocol Summary: Substrate buffer was dispensed into white, solid 1536-well plates at 3uL/well in 0.1M triethanolamine (TEA) buffer, pH 8.0, containing final concentrations of 5 mM MgCl2, 0.01% Tween20, 0.5 mM fructose-6-phosphate (F6P) and 0.1mM ATP. Then, 23 nL of compounds or DMSO were delivered to each well using a pin tool. One uL T. brucei PFK (0.1M TEA, 0.01% Tween20, 0.1% bovine serum albumin (BSA) and 1.25nM PFK, final concentrations) was then dispensed, and plates were incubated at room temperature for 45 min. The luminescent detection reagent, ADP-Glo (Promega), was then added in two steps: the first reagent, ADP-Glo (which converts remaining uncatalyzed ATP), was added at 2.5uL/well and incubated for ten minutes at room temperature, and the second component, Kinase Detection reagent (which converts ADP to ATP as a substrate for luciferase-based luminescence), was added immediately after at 5uL/well, followed by one final ten minute room temperature incubation. The plates were measured on a ViewLux plate reader for luminescent signal using a clear filter with a one second exposure. The %Activity was determined from the corrected luminescence values. […]
Further: nearly all actives have a fitted effect of over 60% in size.
Potency means the concentration at half of the fitted maximal effect; tags describe the fitted curve by direction and shape.
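Wherever activity change, negative = inhibition is given: plate controls were full PFK enzyme control for no effect and no enzyme control for full effect.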

UniProt O15648, sequence (O15648 whole entry, looked up): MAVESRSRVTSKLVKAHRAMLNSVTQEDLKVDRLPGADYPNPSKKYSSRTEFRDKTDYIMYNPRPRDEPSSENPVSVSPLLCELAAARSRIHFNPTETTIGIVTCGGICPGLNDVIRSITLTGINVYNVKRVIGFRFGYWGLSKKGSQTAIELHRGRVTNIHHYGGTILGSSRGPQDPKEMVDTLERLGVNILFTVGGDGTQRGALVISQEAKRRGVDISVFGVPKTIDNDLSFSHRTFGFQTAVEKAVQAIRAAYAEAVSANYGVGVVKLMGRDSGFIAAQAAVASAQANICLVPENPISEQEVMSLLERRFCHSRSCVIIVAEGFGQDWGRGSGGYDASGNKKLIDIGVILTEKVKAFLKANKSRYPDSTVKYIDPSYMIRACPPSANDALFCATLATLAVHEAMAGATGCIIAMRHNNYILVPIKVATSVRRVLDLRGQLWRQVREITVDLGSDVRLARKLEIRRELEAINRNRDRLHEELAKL

| SMILES | Potency | activity change, negative = inhibition |
| --- | --- | --- |
| COc1cc(/C=C/c2ccc3c([N+](=O)[O-])cccc3n2)ccc1OCC(=O)O | inconclusive: 12 µM [activator, partial curve] |  |
| O=C1CC(=O)N(Cc2ccco2)C(=S)N1 | inconclusive: 23.9 µM [inhibitor, single point] |  |
| CSc1ccc(C(=S)N2CCN(C)CC2)cc1 | inconclusive: 21.3 µM [inhibitor, single point] |  |
| C/C(=C\c1ccc(N(C)C)cc1)[N+](=O)[O-] | inconclusive: 3.38 µM [activator, full curve] |  |
| CN(C)c1ccc(NC(=S)c2ccc3ccccc3n2)cc1 | active: 9.53 µM |  |
| C[C@@H]1NCCc2cc(O)c(O)cc21 | inconclusive: 26.9 µM [inhibitor, single point] |  |
| c1ccc(CSc2nnc(-c3ccco3)c(-c3ccco3)n2)cc1 | inconclusive: 8.49 µM [inhibitor, partial curve] |  |
| O=C(CCC(=O)N1CCN(c2cccc(Cl)c2)CC1)c1cccs1 | inconclusive: 26.9 µM [inhibitor, single point] |  |
| Cc1ccc(-c2nnn3c2nc(NCCc2ccc(S(N)(=O)=O)cc2)c2ccccc23)cc1 | inconclusive: 1.51 µM [inhibitor, full curve] |  |
| C=CCNC(=S)Nc1ccc(OC(=O)Nc2ccc(Cl)c(Cl)c2)cc1 | active: 26.9 µM |  |
| Cc1ccc(C)c2nc3sc(C(=O)O)cc3cc12 | inconclusive: 23.9 µM [activator, partial curve, poor fit] |  |
| Nn1c(Cc2cccc3ccccc23)n[nH]c1=S | active: 2.13 µM |  |
| CCOC(=O)C1=C(C)c2ccccc2N(C(=O)OC)C1(C)C(=O)OCC (stereo unspecified) | inconclusive: 21.3 µM [inhibitor, single point] |  |
| Cc1cc(C)cc(N2C(=O)NC(=O)/C(=C\C=C\c3ccco3)C2=O)c1 | active: 21.3 µM |  |
| CN(C)C(CNC(=O)c1ccc(OCc2cn3ccccc3n2)cc1)c1ccco1 (stereo unspecified) | inconclusive: 3.01 µM [inhibitor, full curve] |  |
| O=C(O)CC1S/C(=N/N=C/c2ccc(-c3ccc(Cl)cc3[N+](=O)[O-])o2)NC1=O (stereo unspecified) | inconclusive: 3.38 µM [activator, full curve] |  |
| CCNc1nc(NCC)n2c(SCC(=O)Nc3ccc(CC)cc3)nnc2n1 | active: 16.9 µM |  |
| CS(=O)(=O)Nc1ccccc1C(=O)OCC(=O)N1CCC(c2ccccc2)=N1 | inconclusive: 26.9 µM [inhibitor, single point] |  |
| O=Cc1cn(Cc2ccc([N+](=O)[O-])cc2)c2ccccc12 | inconclusive: 19 µM [inhibitor, partial curve] |  |
| COc1ccc(C(=O)Nc2nnc(CC(=O)N/N=C/c3ccc(O)cc3O)s2)cc1 | inconclusive: 7.57 µM [activator, full curve] |  |
| CN1CN(c2cccc([N+](=O)[O-])c2)CN=C1N[N+](=O)[O-] | inconclusive: 30.1 µM [inhibitor, partial curve] |  |
| CCc1ccc(N2C(=O)NC(=O)/C(=C\C=C\c3ccco3)C2=O)cc1 | inconclusive: 12 µM [inhibitor, partial curve] |  |

| SMILES | Potency | activity change, negative = inhibition |
| --- | --- | --- |
| CCOc1cccc(N2C(=O)/C(=C/c3ccco3)C(=O)NC2=S)c1 | inconclusive: 13.5 µM [inhibitor, partial curve] |  |
| Cc1n[nH]c(C)c1Sc1ccccc1[N+](=O)[O-] | inconclusive: 26.9 µM [inhibitor, partial curve] |  |
| CN1C(=O)NC(=O)/C(=C\C=C\c2ccccc2[N+](=O)[O-])C1=O | inconclusive: 1.2 µM [activator, partial curve] |  |
| O=Cc1cn(Cc2cccc([N+](=O)[O-])c2)c2ccccc12 |  | inactive: -23.7% |
| Cc1ccc(-c2ccc(/C=N/N=C3/NC(=O)C(CC(=O)O)S3)o2)c([N+](=O)[O-])c1 (stereo unspecified) | inconclusive: 3.38 µM [activator, full curve] |  |
| CS(=O)(=O)N1CCN(Cc2ccc([N+](=O)[O-])cc2)CC1 | inconclusive: 23.9 µM [inhibitor, single point] |  |
| CC(=O)c1c(C)nc(-c2ccc(Cl)cc2)nc1N | inconclusive: 19 µM [inhibitor, partial curve] |  |
| CCOC(=O)C1CCN(/C=C2/C(=O)NC(=O)N(Cc3ccco3)C2=O)CC1 | inconclusive: 21.3 µM [inhibitor, single point] |  |
| CN(C)c1cc(Cl)c2nonc2c1N | inconclusive: 21.3 µM [inhibitor, partial curve] |  |
| C=CC#CC[N+]1(CC#Cc2ccccc2)CCOCC1 | inconclusive: 1.35 µM [activator, full curve] |  |
| O=C(COC(=O)c1ccccc1Oc1ccccc1)NCc1ccco1 | inconclusive: 16.9 µM [inhibitor, partial curve] |  |
| COc1cc2c(cc1O)[C@H]1Cc3ccc(OC)c(O)c3CN1CC2 |  | inactive: -1.47% |
| NCCc1c[nH]c2ccc(F)cc12 | inconclusive: 37.9 µM [inhibitor, single point] |  |
| CC(=O)N(C1=C(Cl)C(=O)c2ccccc2C1=O)C1CCCCC1 | active: 0.379 µM |  |
| O=C(O)CCCNc1ccc(S(=O)(=O)Nc2ccccc2C(=O)O)cc1C(=O)O | inconclusive: 8.49 µM [activator, partial curve] |  |
| COc1ccc(-c2cc(=NCCC(=O)O)c3cc(C)ccc3o2)cc1 | inconclusive: 15.1 µM [activator, partial curve] |  |
| O=c1oc2ccccc2c(O)c1[C@H]1c2ccc(O)cc2Oc2c1c(=O)oc1ccccc21 | inconclusive: 12 µM [activator, partial curve] |  |
| CCn1c(C)c(CS(=O)(=O)c2ccccc2)[nH]c1=O | inconclusive: 3.38 µM [activator, full curve] |  |
| Cc1ccc(-c2cn3c(=S)[nH]nc3s2)cc1 | inconclusive: 0.849 µM [inhibitor, full curve] |  |
| COc1ccc(/C=N/NC(=O)Cc2ccc(Cl)cc2)cc1OC | inconclusive: 23.9 µM [inhibitor, partial curve] |  |
| O=C(Cc1ccc(Cl)c(Cl)c1)Nc1cccnc1 | active: 12 µM |  |
| COc1ccc(N2C(=O)/C(=C/c3cccs3)NC2=S)cc1 | active: 6.01 µM |  |

| SMILES | Potency | activity change, negative = inhibition |
| --- | --- | --- |
| O=C(NNC(=O)c1ccc2nonc2c1)Nc1ccc(Cl)cc1 | inconclusive: 23.9 µM [inhibitor, single point] |  |
| CC(=O)Nc1cc([As](=O)(O)O)ccc1O | inconclusive: 21.3 µM [inhibitor, partial curve, poor fit] |  |
| Cc1ccc(S(=O)(=O)CNC(=S)c2cccc(Cl)c2)cc1 | active: 30.1 µM |  |
| N/C(=N\OC(=O)Nc1ccc(Cl)c(Cl)c1)c1ncc(C(F)(F)F)cc1Cl | inconclusive: 26.9 µM [inhibitor, partial curve] |  |
| CCc1cccc(C)c1NC(=O)COC(=O)CNS(=O)(=O)/C=C/c1ccccc1 | active: 26.9 µM |  |
| O=[N+]([O-])c1ccc(NCc2ccccc2)nc1 | inconclusive: 21.3 µM [inhibitor, single point] |  |
| COc1cc2c(cc1OC)CN(c1ccc([N+](=O)[O-])c(C(F)(F)F)c1)CC2 | inconclusive: 12 µM [inhibitor, partial curve] |  |
| Cc1ccc(S(=O)(=O)N2CCOCC2)cc1C(=O)OCC(=O)Nc1ccc2[nH]c(=O)[nH]c2c1 | inconclusive: 3.79 µM [inhibitor, full curve] |  |
| CCc1nnc(NS(=O)(=O)c2ccc(NC(=S)NC(=O)/C=C/c3ccc(OC)cc3)cc2)s1 | inconclusive: 37.9 µM [inhibitor, single point] |  |
| Nc1ncnc2c1ncn2[C@@H]1O[C@H](COP(=O)(O)OP(=O)(O)OP(=O)(O)O)[C@@H](O)[C@H]1O | inconclusive: 10.7 µM [activator, partial curve] |  |
| OCC[n+]1c2ccccc2nc2ccc(N3CCOCC3)cc21 |  | inactive: -1.88% |
| Clc1cccc(CN2C3=NCCCN3c3ccccc32)c1 | inconclusive: 26.9 µM [inhibitor, single point] |  |
| CC1CN(S(=O)(=O)c2cc(C(=O)NCc3ccncc3)ccc2Cl)CC(C)O1 (stereo unspecified) | inconclusive: 16.9 µM [inhibitor, partial curve] |  |
| O=c1cc(-c2ccc(O)c(O)c2)oc2cc(O)cc(O)c12 | inconclusive: 23.9 µM [activator, single point] |  |
| Cc1cc(C)nc(/N=C(\N)c2c(O)[nH]c(=O)[nH]c2=O)n1 |  | inactive: -16.2% |
| O=C(Nc1ccc(Cl)c(Cl)c1)O/N=C/c1ccncc1 | inconclusive: 33.8 µM [inhibitor, single point] |  |
| O=C1CC(c2cccnc2)=NN1c1ccc(Cl)cc1Cl |  | inactive: -0.696% |
| Cc1ccc(CN2C(=O)N/C(=C\c3cccn3-c3cccc(C(=O)O)c3)C2=O)cc1 | inconclusive: 30.1 µM [inhibitor, single point] |  |
| O=c1[nH]c(=S)n(Cc2ccco2)c(O)c1C=NCc1cccs1 |  | inactive: -13.4% |
| NC(=S)c1cn(C2OC(CO)C(O)C2O)c2ncnc(N)c12 (stereo unspecified) |  | inactive: -13.5% |
| NC1CCc2cc(O)c(O)cc2C1 (stereo unspecified) | active: 2.69 µM |  |
| COC(=O)Oc1nsnc1N1CCOCC1 | inconclusive: 37.9 µM [inhibitor, single point] |  |
